# Measurements published in the supplement of paper PMC8728848.
# The list shows a part of the results.
# Legend:
# Test in all cases: glycan array binding signal (z-score within array); higher = stronger binding
# Details in all cases: glycan notation: IUPAC condensed, linker removed
# [1] = target: Neu5Ac(a2-6)GlcNAc(b1-4)GlcNAc(b1-4)GlcNAc
# How it was run: (§1)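 Glycan array data came from 3228 arrays in the Consortium for Functional Glycomics database, and only arrays with an available protein sequence were kept. Glycan names were put into IUPAC-condensed notation, and columns mapping to the same glycan were averaged. The binding signal is a within-array Z-score, averaged across arrays of one protein sequence run at different concentrations or buffers and across linkers. A negative Z-score can be read as non-binding.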
# Neu5Ac(a2-8)Neu5Ac = target: Neu5Ac(a2-8)Neu5Ac
# How it was run: as §1
# [2] = target: Neu5Ac(a2-8)Neu5Ac(a2-3)Gal(b1-3)GalNAc(b1-4)[Neu5Ac(a2-3)]Gal(b1-4)Glc
# How it was run: as §1
# [3] = target: Neu5Ac(a2-8)Neu5Ac(a2-3)Gal(b1-3)GalNAc(b1-4)[Neu5Ac(a2-8)Neu5Ac(a2-3)]Gal(b1-4)Glc
# How it was run: as §1
# [4] = target: Neu5Ac(a2-8)Neu5Ac(a2-3)Gal(b1-4)Glc
# How it was run: as §1
# [5] = target: Neu5Ac(a2-8)Neu5Ac(a2-3)Gal(b1-4)GlcNAc
# How it was run: as §1
# [6] = target: Neu5Ac(a2-8)Neu5Ac(a2-3)[Gal(b1-3)GalNAc(b1-4)]Gal(b1-4)Glc
# How it was run: as §1
# [7] = target: Neu5Ac(a2-8)Neu5Ac(a2-3)[GalNAc(b1-4)]Gal(b1-4)Glc
# How it was run: as §1
# [8] = target: Neu5Ac(a2-8)Neu5Ac(a2-8)Neu5Ac
# How it was run: as §1
# [9] = target: Neu5Ac(a2-8)Neu5Ac(a2-8)Neu5Ac(a2-3)Gal(b1-4)Glc
# How it was run: as §1
# [10] = target: Neu5Ac(a2-8)Neu5Ac(a2-8)Neu5Ac(a2-3)[Gal(b1-3)GalNAc(b1-4)]Gal(b1-4)Glc
# How it was run: as §1
# [11] = target: Neu5Ac(a2-8)Neu5Ac(a2-8)Neu5Ac(a2-3)[GalNAc(b1-4)]Gal(b1-4)Glc
# How it was run: as §1
# [12] = target: Neu5Ac(a2-8)Neu5Ac(a2-8)Neu5Ac(a2-8)Neu5Ac(a2-3)[GalNAc(b1-4)]Gal(b1-4)Glc
# How it was run: as §1
# [13] = target: Neu5Ac(a2-8)Neu5Gc(a2-3)Gal(b1-4)GlcNAc
# How it was run: as §1
# [14] = target: Neu5Ac(b2-6)Gal(b1-4)GlcNAc
# How it was run: as §1
# Neu5Ac(b2-6)GalNAc = target: Neu5Ac(b2-6)GalNAc
# How it was run: as §1
# [15] = target: Neu5Ac9Ac(a2-3)Gal(b1-4)GlcNAc
# How it was run: as §1
# [16] = target: Neu5Ac9Ac(a2-6)Gal(b1-4)GlcNAc
# How it was run: as §1
# [17] = target: Neu5Gc(a2-3)Gal(b1-3)GlcNAc
# How it was run: as §1
# [18] = target: Neu5Gc(a2-3)Gal(b1-3)[Fuc(a1-4)]GlcNAc
# How it was run: as §1
# Neu5Gc(a2-3)Gal(b1-4)Glc = target: Neu5Gc(a2-3)Gal(b1-4)Glc
# How it was run: as §1
# [19] = target: Neu5Gc(a2-3)Gal(b1-4)GlcNAc
# How it was run: as §1
# [20] = target: Neu5Gc(a2-3)Gal(b1-4)GlcNAc(b1-3)Gal(b1-4)GlcNAc(b1-2)Man(a1-3)[Neu5Gc(a2-3)Gal(b1-4)GlcNAc(b1-3)Gal(b1-4)GlcNAc(b1-2)Man(a1-6)]Man(b1-4)GlcNAc(b1-4)GlcNAc
# How it was run: as §1
# [21] = target: Neu5Gc(a2-3)Gal(b1-4)[Fuc(a1-3)]GlcNAc
# How it was run: as §1
# [22] = target: Neu5Gc(a2-6)Gal(b1-4)GlcNAc
# How it was run: as §1
# Neu5Gc(a2-6)GalNAc = target: Neu5Gc(a2-6)GalNAc
# How it was run: as §1
# [23] = target: Neu5Gc(a2-8)Neu5Ac(a2-3)Gal(b1-4)GlcNAc
# How it was run: as §1
# [24] = target: Neu5Gc(a2-8)Neu5Gc(a2-3)Gal(b1-4)GlcNAc
# How it was run: as §1
# [25] = target: Neu5Gc(a2-8)Neu5Gc(a2-3)Gal(b1-4)GlcNAc(b1-3)Gal(b1-4)GlcNAc
# How it was run: as §1
# [26] = target: Neu5Gc(a2-8)Neu5Gc(a2-6)Gal(b1-4)GlcNAc
# How it was run: as §1
# [27] = target: Neu5Gc(b2-6)Gal(b1-4)GlcNAc
# How it was run: as §1
binder,measurement,setting,value
"FliC (Pseudomonas aeruginosa), P72151 (protein) MALTVNTNIASLNTQRNLNASSNDLNTSLQRLTTGYRINSAKDDAAGLQISNRLSNQISGLNVATRNANDGISLAQTAEGALQQSTNILQRIRDLALQSANGSNSDADRAALQKEVAAQQAELTRISDTTTFGGRKLLDGSFGTTSFQVGSNAYETIDISLQNASASAIGSYQVGSNGAGTVASVAGTATASGIASGTVNLVGGGQVKNIAIAAGDSAKAIAEKMDGAIPNLSARARTVFTADVSGVTGGSLNFDVTVGSNTVSLAGVTSTQDLADQLNSNSSKLGITASINDKGVLTITSATGENVKFGAQTGTATAGQVAVKVQGSDGKFEAAAKNVVAAGTAATTTIVTGYVQLNSPTAYSVSGTGTQASQVFGNASAAQKSSVASVDISTADGAQNAIAVVDNALAAIDAQRADLGAVQNRFKNTIDNLTNISENATNARSRIKDTDFAAETAALSKNQVLQQAGTAILAQANQLPQAVLSLLR",glycan array binding signal (z-score),[1],-0.178
same,glycan array binding signal (z-score),Neu5Ac(a2-8)Neu5Ac,-0.13
same,glycan array binding signal (z-score),[2],-0.082
same,glycan array binding signal (z-score),[3],-0.103
same,glycan array binding signal (z-score),[4],2.98
same,glycan array binding signal (z-score),[5],-0.2
same,glycan array binding signal (z-score),[6],-0.144
same,glycan array binding signal (z-score),[7],-0.209
same,glycan array binding signal (z-score),[8],-0.088
same,glycan array binding signal (z-score),[9],-0.109
same,glycan array binding signal (z-score),[10],-0.227
same,glycan array binding signal (z-score),[11],-0.22
same,glycan array binding signal (z-score),[12],-0.066
same,glycan array binding signal (z-score),[13],-0.217
same,glycan array binding signal (z-score),[14],-0.257
same,glycan array binding signal (z-score),Neu5Ac(b2-6)GalNAc,1.11
same,glycan array binding signal (z-score),[15],-0.239
same,glycan array binding signal (z-score),[16],-0.222
same,glycan array binding signal (z-score),[17],-0.117
same,glycan array binding signal (z-score),[18],-0.22
same,glycan array binding signal (z-score),Neu5Gc(a2-3)Gal(b1-4)Glc,-0.084
same,glycan array binding signal (z-score),[19],-0.226
same,glycan array binding signal (z-score),[20],-0.025
same,glycan array binding signal (z-score),[21],-0.163
same,glycan array binding signal (z-score),[22],-0.214
same,glycan array binding signal (z-score),Neu5Gc(a2-6)GalNAc,-0.183
same,glycan array binding signal (z-score),[23],-0.163
same,glycan array binding signal (z-score),[24],-0.15
same,glycan array binding signal (z-score),[25],-0.054
same,glycan array binding signal (z-score),[26],-0.182
same,glycan array binding signal (z-score),[27],-0.163
